Results reported in ChEMBL document CHEMBL1157539, “Thousands of chemical starting points for antimalarial lead identification” (Nature, 2010).
The full ranking holds about 13,000 compounds; the median of “IFI” is about 4, and the highest 2% start at about 17. The list shows a part of the results.

Assay: GSK_TCMDC: Inhibition Frequency Index (IFI). The number of non-kinase HTS assays where a compound showed > 50 % inhibition, expressed as a percentage of the number of such assays in which the compound was tested (-0 is zero)
Type: functional

SMILES | IFI
COc1ccc(Nc2ncc3c(-c4cccc(NC(=O)Cc5cccnc5)c4)c[nH]c3n2)cc1OC | 4.9%
Cn1cncc1C(=O)Nc1cccc(-c2ccc(-c3nc4cc(F)ccc4[nH]3)s2)c1 | -0%
COc1cc2nc(-c3ccc(Br)cc3)cc(N)c2cc1OC | 11.1%
CC(=O)Nc1cccc(/C=C/C(=O)N2CCC(N3CCCCC3)CC2)c1 | 0.75%
CCN1CCN(CC(O)CNC(=O)Nc2ccc(Cl)cc2)CC1 (stereo unspecified) | 2.72%
CC(=O)N1N=C(c2ccc(F)cc2)Sc2c1nc(C1CCCCC1)n2C(C)=O | 3.08%
COCCNCc1cccc(-c2ccc3c(Nc4ccc(F)cc4Cl)ccnc3c2)c1 | 2.22%
CCc1c(CCNCCCCCCNCCc2ccc(Br)cc2)ccc(O)c1O | 4.29%
CCCCCCCCCCS(=O)(=O)N[C@H](COCc1cccc(Oc2ccccc2)c1)COP(=O)(O)OC | 0%
O=C(Nc1ccc2ccccc2c1)c1ccc(CN2CCC(Cc3ccccc3)CC2)cc1 | 6.21%
Fc1ccc2[nH]ccc(=NN=CC=Cc3ccccc3)c2c1 | 2.24%
O=C(Nc1ccc(-c2ccc(-c3nc4cc(C(F)(F)F)ccc4[nH]3)cc2)cc1)Nc1ccc(F)c(F)c1F | 2.97%
N#Cc1ccc2c(c1)CCN(CCC1CCC(Nc3ncnc4ccccc34)CC1)C2 (stereo unspecified) | 7.25%
O=C(Nc1ccc(-c2ccc(-c3nc4ccccc4[nH]3)s2)cc1)Nc1ccc(Cl)c(Cl)c1 | 4.04%
O=C(N[C@@H](Cc1ccccc1)C(=O)NC1CCCCCC1)c1ccc(O)c(-c2cccc(C(F)(F)F)c2)c1 | 2.19%
Cc1nc(-c2ccc3c(c2)CCN(CCC2CCC(NC(=O)c4cc5cccc(Cl)c5[nH]4)CC2)CC3)no1 (stereo unspecified) | 7.35%
O=C(NC1CCN(Cc2ccccc2)CC1)c1cc(-c2cccnc2)nc2ccc(Cl)cc12 | -0%
COc1ccc(CNCc2ccc(F)cc2)cc1-c1ccc(S(=O)(=O)NCCN2CCCC2)cc1 | 10.9%
CCOc1ccc2c(N/N=C/c3cccc([N+](=O)[O-])c3)cc(C)nc2c1 | 3.29%
Cc1cc(N)nc2ccc(-c3cccc(CN)c3)cc12 | 4.14%
COc1ccc(CN2C(=S)N(Cc3ccccc3)C(=O)C2CC(=O)Nc2ccccc2)cc1OC (stereo unspecified) | 3.42%
O=C(Nc1cc(Cl)cc(Cl)c1)c1cnn(-c2ccc(F)cc2)c1C1CCNCC1 | 3.96%
CC(C)(C)c1ccc(CNC(=O)c2cc(CNC3CCC(N)CC3)ccc2O)cc1 (stereo unspecified) | 2.94%

SMILES | IFI
CCCCCN1CCN(Cc2cccc(NC(=O)c3ccc(Cl)c(Cl)c3)c2)CC1 | 6.62%
COc1ccc(NS(=O)(=O)c2ccccc2Br)cc1N1CCN(C)CC1 | -0%
CN1CCN(c2cc3c(Nc4ccc5c(cnn5Cc5ccccc5)c4)ncnc3cn2)CC1 | 3.1%
COc1ccc(CNC(=O)Nc2cccc(-c3csc(NC(=N)N)n3)c2)cc1 | 0.77%
COc1ccc(CCN(C)CCOc2ccc(NC(=O)COc3ccc4sc5ccccc5c(=O)c4c3)cc2)cc1OC | 16.1%
CC(C)(C)C(=O)Nc1ccc(C(=O)Nc2cccc(-c3nc4ccccc4[nH]3)c2)cc1 | 2.84%
O=C(/C=C/c1ccc(Cl)c(Cl)c1)NCCCCCN1CCCC(CNC(=O)Nc2ccc(C(F)(F)F)cc2)C1 (stereo unspecified) | 17.7%
COc1ccc(-c2cc(C(=O)N3CCc4ccccc43)c3ccccc3n2)cc1OC | 2%
O=C(NCCN1CCC(c2ccncc2)CC1)c1cccc(Nc2nccc(Nc3ccc(Oc4ccccc4)cc3)n2)c1 | 5.97%
Nc1nccc2ccc(-c3ccnc(NCc4cccnc4)n3)cc12 | 5.56%
O=C(c1cc(-c2cccs2)n[nH]1)N1CCN(S(=O)(=O)c2ccc(Cl)cc2)CC1 | -0%
COCCNCc1ncsc1-c1ccc2c(Nc3ccc(Oc4ccccc4)cc3)ccnc2c1 | 7.35%
CN(C)CCNCc1ccc(-c2ccc3c(Nc4ccc(Oc5ccccc5)cc4)ccnc3c2)o1 | 7.19%
CC(C)c1sc(N2CCN(C)CC2)nc1C(=O)Nc1cccc2c1CCCC2 | 3.85%
O=C(Nc1ccccc1)c1ccc(N2CCC(COc3cccc(C(F)(F)F)c3)CC2)nc1 | 0%
COc1ccc2c(Nc3ccc(N4CCN(C)CC4)cc3)cc(C)nc2c1 | 4.44%
C=C(C)CSc1nc2c(c(=O)n1Cc1ccco1)C1(CCCCC1)Cc1ccccc1-2 | 2.9%
CC(C)N1CCN(C(CN2CCN(CCCOc3cccc(F)c3)CC2)c2ccc(F)cc2)CC1 (stereo unspecified) | 6.2%
CC1(C)CC(=O)c2c(O)cc(OCc3ccncc3)cc2O1 | -0%
Cc1ccc(F)cc1S(=O)(=O)Nc1cccc(CCN2CCC(N3CCCCC3)CC2)c1 | 6.25%
N#Cc1ccc(N[C@@H](CC2CCCCC2)C(=O)N[C@@H]2CCCc3ccccc32)c2ccccc12 | 2.88%
Oc1ccc(CCNc2nc(N/N=C/c3ccc(Cl)cc3)nc(N3CCNCC3)n2)cc1 | 0.75%
CC(C)(C)C(=O)Nc1ccccc1Oc1ccc(Cl)cc1 | 0.72%

SMILES | IFI
COc1ccc2ncc(F)c(CCN3CCC4(CC3)COC(c3cc5c(cn3)OCCO5)=N4)c2n1 | 3.52%
Fc1ccc(Nc2ccnc3cc(-c4cccc(CN5CCCCC5)c4)ccc23)c(Cl)c1 | 0.73%
CCN1CCC(N(Cc2ccc(-c3ccc(Cl)cc3)cc2)C(=O)Cn2c(CCc3cccc(F)c3F)cc(=O)c3ccccc32)CC1 | 14.1%
COc1ccc(NC(=O)Nc2cccc(-c3ccncc3)c2)cc1N1CCN(C)CC1 | 0.73%
Cc1nc(-c2nc(NCc3ccncc3)ncc2-c2ccsc2)sc1C | 6.9%
COc1ccc(NC(=O)Nc2ccc(-c3ccncc3)c(Cl)c2)cc1N1CCN(C)CC1 | 4.32%
c1ccc(CNCc2cccc(-c3ccc(-c4nc5ccccc5[nH]4)cc3)c2)cc1 | 5.83%
CC(C)Oc1cccc(-c2ccc(C(=O)NCC3CCCN(Cc4cccc(C(F)(F)F)c4)C3)s2)c1 (stereo unspecified) | 3.64%
CCN1CCN(c2ccc(Nc3c4ccccc4nc4ccccc34)cc2)CC1 | 6.52%
COc1ccc(CNC(=O)NC2CCN(c3ccnc(Nc4ccc(F)cc4)n3)C2)cc1 (stereo unspecified) | 7.58%
COc1ccc2nccc([C@@H](O)CN3CCC(NCc4ccc5c(c4)sc(=O)n5C)CC3)c2c1 | 1.44%
Cn1c(Nc2cc(C(C)(C)C)on2)nc2cc(Nc3ccnc(Nc4cccc(CS(C)(=O)=O)c4)n3)ccc21 | 2.83%
COc1ccccc1CNc1nc(Nc2ccccc2C)nc2ccccc12 | 6.29%
CC(C)(C)OC(=O)c1c(NC(=O)/C=C/c2ccc(O)c(O)c2)sc2c1CCCC2 | 6.38%
Cc1ccc(C)c(-n2c(SCC(=O)Nc3ccc(C(N)=O)cc3)nnc2-c2cccc(Cl)c2)c1 | 4.5%
Cc1c(-c2cccc(C(C)(C)NC3CCN(Cc4ccccc4)CC3)c2)cnc(N)c1C | 2.99%
CN1CCN(CCCN(Cc2csc(-c3ccc(CNCc4ccccc4)cc3)n2)S(=O)(=O)c2cccc3cccnc23)CC1 | 6.9%
Nc1cccc(CNCc2ccc(-c3cccc(-c4nc5cc(F)ccc5[nH]4)c3)cc2)c1 | 7.77%
O=C(/C=C/c1ccc(Cl)c(Cl)c1)NCCCCCN1CCCN(C(=O)Nc2ccc(C(F)(F)F)cc2)CC1 | 10.7%
COc1ccc(NC(=O)c2cccc(Br)c2)cc1N1CCN(CCCCCCCN2CCN(c3cc(NC(=O)c4cccc(Br)c4)ccc3OC)CC2)CC1 | 5.97%
CNCCNCc1ccc(-c2ccc(-c3nc4ccccc4[nH]3)s2)cc1 | 8.91%
Cc1cc(C(=O)Nc2ccc(-c3ccccc3)cc2)no1 | 0%
CNCCNCc1cccc(-c2ccc(-c3nc4ccccc4[nH]3)cc2)c1 | 7%

SMILES | IFI
Cc1ccc(-c2nc3cc(C(=O)NC4CCC(N5CCCc6ccc(C#N)cc6C5)CC4)ccc3[nH]2)cc1 (stereo unspecified) | -0%
Oc1ccc2ccccc2c1C=NNc1nc(=Nc2ccccc2)[nH]c(=Nc2ccccc2)[nH]1 | 4.93%
COc1cccc(CNC(=O)[C@@H]2CN(C(=O)c3ccccc3)CCN2)c1 | -0%
N=C(N)NN=CC(=O)Nc1cc([N+](=O)[O-])cc([N+](=O)[O-])c1 | 0.75%
COc1cc(F)c2ncc(Cl)c(CCN3CCC(NCc4ccc5c(c4)NC(=O)CS5)CC3)c2c1 | 7.3%
c1ccc(-c2nc3ccccc3[nH]2)c(Nc2ccnc3cc(-c4nccs4)ccc23)c1 | 7.14%
O=C(Nc1ccc2c(c1)OCCO2)c1cc(-c2cccnc2)nc2ccc(Cl)cc12 | 0.87%
Cc1ccc(O)cc1Nc1ccnc2cc(-c3ccc(CN4CCCCC4)o3)ccc12 | 2.9%
O=C(Nc1cccc(-c2nc3ccccc3s2)c1)c1ccccc1[N+](=O)[O-] | 2.11%
COc1cc(CNCCCCCCNCc2cc(OC)cc3ccccc23)c2ccccc2c1 | 10.1%
CN(C)CCOc1cc(NC(=O)Nc2ccc(Oc3ccccc3)cc2)ccc1I | 4.44%
Nc1ncc(-c2ccc(F)c(Cl)c2)c(N)n1 | 1.48%
C[C@H](Cc1ccc(S(=O)(=O)c2ccc(C[C@@H](C)NC[C@H](O)c3cccc(Cl)c3)cc2)cc1)NC[C@H](O)c1cccc(Cl)c1 | 22.7%
O=C(/C=C/c1ccc(Cl)c(Cl)c1)NCCCCCN1CCCN(C(=O)Nc2ccc(Br)cc2)CC1 | 6.71%
O=C(NCCCN1CCN(c2cccc(Cl)c2)CC1)c1ccc(-c2nc3cc(Cl)c(Cl)cc3[nH]2)c(F)c1 | 0.74%
O=C(CCCc1ccccc1)Nc1cccc(N2CCC(N3CCN(c4ccccc4O)CC3)CC2)c1 | 7.14%
Cc1ccc2[nH]c(-c3cc(-c4cccc(C#N)c4)cnc3N)nc2c1 | 7.14%
CCN1CCC(N(Cc2ccc(-c3ccc(C(F)(F)F)cc3)cc2)C(=O)Cn2c(CCc3cccc(F)c3F)nc(=O)c3ccccc32)CC1 | 10.3%
O=C(Nc1ccc(OC2CCN(Cc3ccsc3)CC2)c(Cl)c1)c1ccco1 | 4.55%
Cn1cc(-c2ccnc3[nH]c(-c4cccc(CNC5CCC(O)CC5)c4)cc23)cn1 (stereo unspecified) | 8.11%
CC1(C)NC(N)=NC(=N)N1OCc1cccs1 | 1.43%
COc1cc(C=NN=c2cc(C)[nH]c3ccccc23)cc(OC)c1OC | 1.46%
